B1: CPEB3 Ribozyme (parent)
chain: UAACAGGGGGCCACAGCAGAAGCGUUCACGUCGCAGCCCCUGUCAGAUUCUGGUGAAUCUGCGAAUUCUGCUGUAUAUCUC

Read counts are not given, so values of variants with three or more changes are uncertain.

The data set covers variants of B1. The experiment in a line: self-cleavage, relative activity (ratio to wild type); higher = more cleavage; in vitro, sequencing. The method in brief: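 Barcoded CPEB3 ribozyme mutants, produced by rounds of error-prone PCR, self-cleaved while being transcribed with T7 RNA polymerase for 5 hours at 37°C and during a subsequent 15 min DNase I step before EDTA was added. Sequencing of template-switched cDNA on Illumina gave cleaved and total reads, and DNA sequencing assigned barcodes to variants. Each variant's relative activity is its cleaved/total read fraction divided by the unmutated ribozyme's fraction, averaged across three batches. A variant needed a minimum of 5 reads.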
Turning to A15G U48C U76A, the self-cleavage was 0.21.
Then A15G A18C G36A U60A U80C, with 0.04; and A15G A18G G46C C62U U69A, with 0.08; and A15G U26A C34A U66C, with 0.08.
For A15G U31A C40A U78C, the self-cleavage was 0.16.
Then A15G U43C U80C, with 0.56; and A15G C29U C71U, with 0.1; and A15G U41A A75G, with 0.32.
In the case of A15G G16A A45C it was 0.26; in that of A15U A28G A47G G73U, 0.3.
On to A15G C17U U60A U72C, for which the self-cleavage came to 0.68.
For A15G U78C U80A, the self-cleavage turned out to be 1.08.
In the case of A15C U69G U72C, the self-cleavage stood at 0.32.
Regarding A15U A28G C34G U54C, the self-cleavage is 0.16.
A15G U41C U69C: the self-cleavage came to 0.26.
Then A15G A28G U31A U51C U72A, with 0.16.
For the variant A15G A20G U69C, the self-cleavage is 0.39.
Turning to A15G U60A U74A, the self-cleavage amounted to 0.23.
Regarding A15G A35U C68A, the self-cleavage amounted to 0.24.
A15G A20U U72C: the self-cleavage came to 0.55.
On to A15G U31A U41C A45G, for which the self-cleavage is 0.23.
For A15G G30A A64G U66C, the self-cleavage was found to be 0.18.
Turning to A15G G30A A35G U43C U51C A57G, the self-cleavage stood at 0.13.
As to A15G A20G U26A U41C U43A, the self-cleavage stood at 0.44.
Turning to A15G A56G U60A U69C G73U, the self-cleavage was 0.31.
On to A15G A20G A28G A75G, for which the self-cleavage came out at 0.41.
Turning to A15G A47U U67C U80C, the self-cleavage came out at 0.15.
Take A15G A21G U43A: the self-cleavage was determined as 0.69.
For A15G A28G U31C U69A U72A, the self-cleavage was 0.5.
For the variant A15G C29U U41A A57G, the self-cleavage turned out to be 0.07.
A15G U25C U26C C34A U43C U66C: the self-cleavage was 0.13.
Regarding A15U A35G C39A U72C, the self-cleavage amounted to 0.93.
Turning to A15C U26G U41A C62A, the self-cleavage was determined as 0.34.
Regarding A15G U25C G33A A45G U51C C71A U72A, the self-cleavage worked out at 0.09.
For the variant A15G U31A C34U A45G A56G U74C, the self-cleavage turned out to be 0.09.
Then A15G G55C A77G, with 1.15; and A15G A75G U76A, with 0.36; and A15U A20G U41A U49C, with 0.23.
Take A15U A21G U25A U49C: the self-cleavage was 0.16.
With A15G A28C U41A U43A U72C, the self-cleavage amounted to 0.29.
As for A15U A18U A28G A47U U49C U69C C71U, the self-cleavage came to 0.07.
In the case of A15U A20G U43C U51G U72A it was 0.44; in that of A15G U43C U60A, 0.
Then A15G U25A U51C U72A, with 0.21; and A15G U54A U69A, with 0.3.
On to A15G A18G U25A G30C C39A U72A U76A, for which the self-cleavage was 0.07.
Then A15G A28G U41C U58C A64U U67C, with 0.06.
In the case of A15G U25A U43A, the self-cleavage is 0.13.
For the variant A15G U67C C68A, the self-cleavage was determined as 0.26.
As for A15G A20G U25A U48C U80C, the self-cleavage is 0.41.
With A15U A21G C27G U54G U60A, the self-cleavage was 0.14.
In the case of A15G A35G U43G A47U U49C A57G, the self-cleavage turned out to be 0.
On to A15G A28G A45G U51C, for which the self-cleavage came to 0.35.
In the case of A15G U25C C27A U58C it was 0.04.
In the case of A15G A64C U80A, the self-cleavage was 0.15.
For the variant A15G U31A U51C, the self-cleavage worked out at 0.66.
In the case of A15G A18U G24A C40U G42C A56U A77G, the self-cleavage was found to be 0.06.
As to A15G U51C U78C, the self-cleavage is 0.61.
In the case of A15G C40A A47U A56G A75G, the self-cleavage amounted to 0.05.
With A15G U41C A64U, the self-cleavage amounted to 0.18.
In the case of A15C U49C G73U U76C, the self-cleavage worked out at 0.27.
Consider A15G G30A U41A A45G, for which the self-cleavage came out at 0.07.
Then A15G A20G U31C U41C, with 0.13.
As to A15G A28G U43C A47G U60A, the self-cleavage was 0.43.
For A15G A18G A64U U67A U78C, the self-cleavage is 0.15.
Consider A15G A18U A56U G61A C62U, for which the self-cleavage is 0.22.
In the case of A15G C29U U31C it was 0.22; in that of A15G A45U U51A C81U, 0.51.
Consider A15U A20G A21G U31A, for which the self-cleavage came out at 0.13.
As to A15G A21G C23U U60C U78C, the self-cleavage turned out to be 0.21.
With A15G U31A A77G, the self-cleavage came out at 0.82.
As to A15G U25C U41C C68G U72C A77G, the self-cleavage was 0.06.
For A15G U51A U54G U74A U76A, the self-cleavage worked out at 0.88.
In the case of A15G U25A U26A C38G A57G U67A U78A, the self-cleavage is 0.07.
In the case of A15U A18G U26A G52A it was 0.13; in that of A15G A21C U26C U49A U69A, 0.13; in that of A15G A45U U74A, 0.52.
Then A15G U41G U58C, with 0.14; and A15G A18G U60C U69A, with 0.06.
For the variant A15G A20U U31A, the self-cleavage was 0.36.
A15G A47U U48A A75U: the self-cleavage came out at 0.24.
Regarding A15G U43C U78C, the self-cleavage amounted to 0.39.
Then A15G U54C U78C, with 1.03; and A15G A35U C62A U74C, with 0.14.
As for A15G U31C C38A U43C U60A, the self-cleavage was found to be 0.13.
With A15G A75G A77G, the self-cleavage came to 0.33.
With A15G U26A C34U U41C A56G, the self-cleavage was determined as 0.17.
A15U A20G A28G A35U U41A U43A: the self-cleavage came to 0.43.
As for A15G U43A U54A, the self-cleavage amounted to 1.05.
For the variant A15G G24A U51C, the self-cleavage was determined as 0.19.
With A15G A18G A28G A57G A64G, the self-cleavage amounted to 0.34.
Consider A15G C17U A28G A65G, for which the self-cleavage is 0.22.
For the variant A15G C37U U51A U69C, the self-cleavage came out at 0.1.
Regarding A15G A21G U60A, the self-cleavage worked out at 0.22.
On to A15G A20G U49A A57G, for which the self-cleavage worked out at 0.24.
With A15G U26C U51C U76C, the self-cleavage was determined as 0.48.
Turning to A15G C40U U78A, the self-cleavage was found to be 0.64.
Turning to A15G A18C U25C U72C G73C, the self-cleavage was found to be 0.23.
For A15G C39A U72C U80C, the self-cleavage was 0.21.
As to A15G A57U G63U U69C, the self-cleavage is 0.13.
In the case of A15G A20U U49C U51A A75G it was 0.05; in that of A15G A20G U74C, 0.69; in that of A15G U43C U69A, 0.11.
In the case of A15G U43C A56G U60C, the self-cleavage came out at 0.32.
In the case of A15G A28C U41A U72C C79G, the self-cleavage amounted to 0.19.
Then A15G U48C A64G, with 0.21; and A15G G19A A35U A56G U72A U78C U80C, with 0.04; and A15G A64G A77G, with 0.85.
Then A15G A57G U72A, with 0.47; and A15G A35U U49C A56U U69C U80C, with 0.13; and A15G A28G A45U A47G U80A, with 0.41.
Regarding A15G A45U A57G U74C, the self-cleavage amounted to 0.29.
Then A15U A28C U60C U78C, with 0.1.
Take A15G U41C A45U U51C U67A U72C U78C: the self-cleavage is 0.27.
In the case of A15G A18G C62U A65G, the self-cleavage came out at 0.15.
For A15G A35U A64C U69A, the self-cleavage was 0.11.
Regarding A15G C29U A75U, the self-cleavage was determined as 0.29.
In the case of A15G C68A U78C it was 0.19.
Take A15G U49C U76A U78C: the self-cleavage came to 0.24.
For the variant A15G A28G G33A, the self-cleavage is 0.1.
With A15G C40A A45C U48A, the self-cleavage is 0.24.
In the case of A15U A20U C34U A45G U60C U66C, the self-cleavage is 0.05.
With A15G A18G A35G U54G U76A U78C, the self-cleavage was 0.02.
For the variant A15G A56G G61U U66C, the self-cleavage is 0.16.
Take A15G A21U U43C A64G: the self-cleavage was 0.17.
Then A15G U67C C81U, with 0.18; and A15G U25C U60G, with 0.07.
In the case of A15G A18U U25C C68G A75U it was 0.13; in that of A15G A35G C44U U60A A65U, 0.08; in that of A15G A35U U43G, 0.13.
Consider A15G A35U U43C, for which the self-cleavage was 0.32.
As for A15G C17U U31A A35G U74A, the self-cleavage is 0.73.
For the variant A15G U49A U54C, the self-cleavage was determined as 0.35.
For A15G A35G U80C, the self-cleavage is 1.07.
Consider A15U A35G U41A, for which the self-cleavage was found to be 0.32.
A15G U41A G52C A57G: the self-cleavage came to 0.11.
For the variant A15G U31G C38G A65U, the self-cleavage was determined as 0.11.
Consider A15G A20U U49C U67A, for which the self-cleavage was 0.95.
With A15G A18U U43A A56G U80C, the self-cleavage worked out at 0.31.
With A15C U31C A56G A64U, the self-cleavage was determined as 0.17.
For A15G A28U G55A, the self-cleavage came out at 0.28.
For the variant A15G A45G U54A, the self-cleavage is 1.06.
As for A15U A20U U58C C68A, the self-cleavage is 0.06.
Turning to A15G C23G U25C U51C U80C, the self-cleavage was 0.42.
As to A15U A28G C37U A45G A47G G52C, the self-cleavage worked out at 0.04.
As to A15G G33A U54C U72G, the self-cleavage is 0.13.
As for A15G A28G U49A U69C, the self-cleavage worked out at 0.07.
Take A15U A21G A56G U60C U67C: the self-cleavage stood at 0.08.
Regarding A15G U54G U78C, the self-cleavage stood at 0.88.
On to A15G C29U U31C G55U G61U, for which the self-cleavage came to 0.16.
With A15G U54G A56U U60C, the self-cleavage is 0.21.
For A15G U31C A35C A45U A47G U48C, the self-cleavage worked out at 0.
Consider A15G U43A U69C U74C, for which the self-cleavage is 0.21.
Then A15G U41C U51A U54C, with 1.15; and A15G A18G U41G A57G, with 0.24; and A15G U26C A47U U60A U72C, with 0.3.
On to A15G A20G A45G A65G, for which the self-cleavage came out at 0.18.
As for A15C U67C U69C, the self-cleavage was 0.18.
In the case of A15G A20U A28G A56G A57G U58C U66C it was 0.21; in that of A15U A18G A35G A56U, 0.34.
In the case of A15U A28G U31A U41A it was 0.38.
As to A15G U25G U80A, the self-cleavage amounted to 0.43.
In the case of A15G G24A A47G, the self-cleavage turned out to be 0.22.
For the variant A15G A20U U60C G61A U67C, the self-cleavage was 0.15.
In the case of A15C G33A A56G U78C, the self-cleavage was 0.06.
Turning to A15G U31A C50A U60C G61A U80C, the self-cleavage amounted to 0.16.
Then A15G U49C G73C U74A, with 0.33.

These data come from the RNAGym collection of RNA variant scans (doi:10.1093/nar/gkz1192).
